PubChem BioAssay AID463173 (ICCB-Longwood Screening Facility, Harvard Medical School, 2010)
The whole screen tested about 52,000 compounds, of which about 4,300 (8.3%) were called active. Rule as the data show it: active = survival mostly below about 52% (no sharp cut-off); inactive = mostly above about 56%. The list shows a part of the results.

The molecules below were run on DeltatarO mutant (assay: S. aureus survival, RN4220 and DeltatarO strains – OD600, teichoic acid synthesis inhibitors, primary screen (AID 463173)). Details: S. aureus RN4220 wild type/DeltatarO growth, OD600, 18 h, hits give low values, screened at 18.75 µg/mL (by protocol).

| Structure (SMILES) | survival |
| --- | --- |
| CC1=C(C#N)C(NC(=O)c2cccc(Cl)c2)(C(F)(F)F)C(=O)N1 (stereo not drawn) | inactive: 65% |
| Cc1ccc(S(=O)(=O)NCC2COc3ccccc3O2)cc1 (stereo not drawn) | inactive: 85% |
| Cc1ccc(Cl)cc1NC(=O)N1CCN(C)c2ncccc21 | inactive: 88% |
| Cc1cccc(C(=O)N2CCc3cc(CNC(=O)CCc4ccccc4)ccc32)c1 | inactive: 60% |
| CC(C)Oc1ccc(CNC(=O)C2CCN(C(=O)c3sccc3-n3cccc3)CC2)cc1 | inactive: 62% |
| Cc1ccc(-c2noc(CNC(=O)c3ccc(C(C)(C)C)cc3)n2)cc1 | inactive: 79% |
| COC(=O)c1cc2oc3ccccc3c2n1CC(=O)Nc1ccc(OC)c(OC)c1OC | inactive: 69% |
| COc1ccccc1CNC(=O)CN1C(=O)CSc2ccc(S(=O)(=O)N3CCCC3)cc21 | inactive: 94% |
| Cc1ccc2[nH]c(=O)c(CN(Cc3ccccc3)C(=O)N(C)C)cc2c1 | inactive: 91% |
| CC(C)OCCCN(Cc1ccco1)C(=O)c1cc2c(s1)-c1ccccc1OC2 | active: -5% |
| COCc1cc(C)n(CC(=O)Nc2ccc(NC(C)=O)cc2)c(=O)c1C#N | inactive: 87% |
| CCN(CC)C(=O)Cn1cc(SCC(=O)Nc2cccc(C)c2)c2ccccc21 | inactive: 69% |
| Cc1ccc(NCc2cccn2-c2nnc(N3CCC(C(=O)NCc4ccc(OC(C)C)cc4)CC3)s2)cc1 | inactive: 69% |
| CCC1(C(=O)OC)NC(c2ccc(OC)cc2)C2C(=O)N(C)C(=O)C21 (stereo not drawn) | inactive: 94% |
| CNS(=O)(=O)c1ccc(OC)c(-c2nnc3c4ccccc4c(C)nn23)c1 | inactive: 86% |
| O=C(CSc1ncc2c(n1)-c1ccccc1N(Cc1ccc(F)cc1)S2(=O)=O)c1ccc(Cl)cc1 | inactive: 89% |
| CCc1cc2c(cc3c(=O)n(CC(=O)N4CCN(c5cc(Cl)ccc5C)CC4)ncn32)s1 | inactive: 58% |
| CCOCCOC(=O)c1ccc(NC(=O)/C=C/c2ccc(OC)c(OC)c2)cc1 | inactive: 137% |
| Cc1ccc(S(=O)(=O)c2cn(C)c3cc(N4CCN(C)CC4)c(F)cc3c2=O)cc1 | inactive: 95% |
| CCCc1c(O)nc(SCC(=O)N(CC)CC)[nH]c1=O | inactive: 68% |
| Cc1cccc(C)c1-n1ncc(C(=O)Nc2ccc3c(c2)OCCO3)c1C1CCN(C(=O)OC(C)(C)C)CC1 | inactive: 96% |
| COc1ccc(Nc2c(-c3cc(Br)ccc3O)nc3ncccn23)cc1OC | inactive: 63% |

| Structure (SMILES) | survival |
| --- | --- |
| COc1ccccc1C(=O)Nc1cc2c(cc1N1CCCCC1)n(C)c(=O)n2C | inactive: 78% |
| COc1ccc(N2CCN(CCCNC(=O)C3COc4ccc(OC)cc4C3)CC2)cc1 (stereo not drawn) | inactive: 93% |
| CCc1cccc2c(-c3ccccc3)nc(SCC(=O)Nc3ccccc3)nc12 | inactive: 89% |
| COc1ccc2c(CNCc3ccc(Cl)cc3)c(C(=O)O)n(Cc3ccccc3C)c2c1 | inactive: 97% |
| Cc1cccc(Nc2nnc(-n3nc(C)cc3C)c3ccccc23)c1 | inactive: 125% |
| O=C(Cn1cc(SCc2ccc(C(F)(F)F)cc2)c2ccccc21)N1CCCCC1 | inactive: 81% |
| CC(CC(=O)NCc1ccc(Cl)cc1)CC1=NS(=O)(=O)c2ccccc2N1 (stereo not drawn) | inactive: 84% |
| COc1cc(NC(=O)c2cc(-c3ccc4c(c3)OCO4)on2)cc(OC)c1OC | inactive: 115% |
| COc1ccc(-c2cc(C)no2)cc1S(=O)(=O)NCc1ccc(OC(C)C)cc1 | inactive: 82% |
| CC(=O)c1ccc(N2CCN(c3nc4c(S(=O)(=O)c5ccccc5)nnn4c4ccc(Cl)cc34)CC2)cc1 | inactive: 102% |
| COc1ccc(S(=O)(=O)c2cn(C)c3cc(N4CCCCC4)c(F)cc3c2=O)cc1 | inactive: 80% |
| COc1ccc(NC(=O)c2cnn(-c3ccc(C)cc3)c2-n2cccc2)cc1Cl | inactive: 69% |
| CCOC(=O)c1noc2ncnc(N(CCC(=O)OC)c3ccccc3)c12 | inactive: 117% |
| CCOC(=O)c1noc2ncnc(Nc3ccc(C)c(F)c3)c12 | inactive: 91% |
| CN1CCN(CCCNC(=O)Cn2c(-c3cccs3)cc3ccccc32)CC1 | inactive: 81% |
| Cc1ccc2c(c1)sc1nc(=O)n(-c3ccc(Cl)cc3)c(=O)n12 | inactive: 59% |
| COc1cc(N(C(=O)Cn2nnc3ccccc32)C(C(=O)NCC2CCCO2)c2ccc(F)cc2)ccc1-n1cnnn1 (stereo not drawn) | inactive: 105% |
| COc1ccc(NC(=O)C2=C(C)Nc3nc(SCc4ccccc4C)nn3C2c2ccc(Br)cc2)cc1 (stereo not drawn) | inactive: 80% |
| N#Cc1c(NC(=O)c2ccccc2)oc(-c2ccccc2)c1-c1ccccc1 | inactive: 56% |
| Cc1cccc(NC(=O)C2CCN(S(=O)(=O)c3cccc4nsnc34)CC2)c1C | inactive: 88% |
| Cc1cc(C)cc(NC(=O)CSc2nccn2-c2ccccc2)c1 | inactive: 124% |
| COc1ccc2[nH]cc(NC(=O)NCCO)c(=O)c2c1 | inactive: 97% |

| Structure (SMILES) | survival |
| --- | --- |
| O=C(NC1CC(=O)N(c2ccccc2)C1)C1CCCCC1 (stereo not drawn) | inactive: 126% |
| Cc1cc(Br)ccc1NC(=O)c1cc2c(=O)n(C)c3cc(Cl)ccc3c2s1 | inactive: 80% |
| CCOC(=O)c1c(C)oc2ccc(N(C(=O)Oc3ccccc3)S(=O)(=O)c3ccccc3)cc12 | inactive: 69% |
| CCN1CCN(C(c2ccc(OC)cc2)c2c(O)cc(C)n(CCOC)c2=O)CC1 (stereo not drawn) | inactive: 70% |
| COc1ccc(C(CNC(=O)COc2ccc(C)cc2)N2CCCCC2)cc1 (stereo not drawn) | inactive: 104% |
| CN(C(=O)Cn1c(=O)n(CCCS(=O)(=O)C2CCCCC2)c(=O)c2ccccc21)c1ccccc1 | inactive: 84% |
| COc1ccccc1NC(=O)c1c(NCc2sccc2C)sc2c1CCCCC2 | inactive: 85% |
| CN(C(=O)c1cc(-c2ccccc2O)on1)c1ccccc1 | active: 40% |
| CCC1=NN(C(=O)c2ccccc2O)C(O)(c2ccccc2)C1 (stereo not drawn) | active: 1% |
| CCCCOc1c(Cl)cc(C(=O)N(Cc2ccc(C)o2)C2CCS(=O)(=O)C2)cc1Cl (stereo not drawn) | inactive: 69% |
| CC(=O)N(CCCCN1C(=O)c2ccccc2C1=O)c1ccc(Cl)cc1 | inactive: 80% |
| Cc1cc(C)c2oc(C(=O)N(Cc3ccc(F)cc3)C3CCS(=O)(=O)C3)cc(=O)c2c1 (stereo not drawn) | inactive: 108% |
| CSc1ccc(CCNc2ncnc3onc(C)c23)cc1 | inactive: 98% |
| COC(=O)c1ccc(Cl)cc1NC(=O)N1CC(C)Oc2ccccc21 (stereo not drawn) | inactive: 95% |
| Cc1ccc(-n2nc3c(=O)n(CC(=O)Nc4ccccc4F)nc(C)c3c2C)c(C)c1 | inactive: 88% |
| CCOC(=O)c1ccc(NC(=O)c2cc3cc(C)ccc3n2C)cc1 | inactive: 69% |
| Cc1cc(NS(=O)(=O)c2ccc(NC(=O)COc3ccc(Cl)cc3)cc2)nc(C)n1 | inactive: 54% |
| Cc1ccc(NC(=O)Nc2nnc(N(C)Cc3ccccc3)s2)cc1 | inactive: 82% |
| Cc1ccc2cc(CN(CCO)C(=O)NCc3ccccc3)c(=O)[nH]c2c1 | inactive: 75% |
| COc1ccc2c(CNCc3ccc(C)o3)c(C(=O)O)n(Cc3ccccc3)c2c1 | inactive: 80% |
| O=C(Cn1c(=O)oc2ccccc21)NCc1cccc(Cl)c1 | inactive: 100% |
| CCOc1cc(-c2nc(-c3ccc(-c4ccc(C)cc4)nc3OC)no2)cc(OCC)c1OCC | active: 69% |

| Structure (SMILES) | survival |
| --- | --- |
| COc1ccc(C2C=C(c3ccccc3)Nc3nc(NC(=O)c4ccc(C)cc4)nn32)cc1 (stereo not drawn) | active: 44% |
| Cc1cc(C)cc(N(CC(=O)Nc2cccc(C)c2C)S(=O)(=O)c2c(C)[nH]c(=O)[nH]c2=O)c1 | inactive: 75% |
| Cc1cccc(CCNC(=O)c2cc3ccccn3n2)c1 | inactive: 78% |
| COc1ccc(Cl)cc1NC(=O)Cn1c2ncccc2c(=O)n1-c1ccc(C)c(C)c1 | inactive: 85% |
| CCC(=O)Nc1ccccc1-c1nc2ccccc2n(Cc2cccc(Br)c2)c1=O | inactive: 49% |
| COc1ccc(CN2CCCN(CC(=O)Nc3cc(C)ccc3C)S2(=O)=O)cc1 | inactive: 95% |
| CCOC(=O)c1sc(N2C(=O)c3oc4cc(C)c(C)cc4c(=O)c3C2c2ccc(C)cc2)nc1C (stereo not drawn) | inactive: 195% |
| O=C(Nc1ccccc1Cl)c1ccc(F)c(S(=O)(=O)NCc2ccc(Cl)c(Cl)c2)c1 | inactive: 84% |
| C=CCN(CC=C)C(=O)C1CCN(S(=O)(=O)c2ccc(-n3cnnn3)cc2)CC1 | inactive: 89% |
| CC(=O)Nc1ccc(NC(=O)CCc2c(C)nc3c(c(C)nn3-c3ccc(C)cc3)c2C)cc1 | inactive: 114% |
| CCN(CC)S(=O)(=O)c1nnc(NC(=O)COc2ccc(C)cc2)s1 | inactive: 88% |
| CC(=O)Nc1ccccc1-c1nc2ccccc2n(C(C)C(=O)Nc2cc(Cl)ccc2C)c1=O (stereo not drawn) | inactive: 82% |
| Cc1ccc(C)c(NC(=O)CSc2nnc(CNC(=O)c3ccccc3)n2-c2ccccc2)c1 | inactive: 67% |
| CCCn1c(SCC(=O)c2ccccc2)nnc1C(C)C | inactive: 108% |
| CCOc1ccc(NC(=O)c2ccc(CN3C(=O)C(C)=C(c4ccc(C)cc4)S3(=O)=O)cc2)cc1 | inactive: 91% |
| CC1CCN(C(c2nnnn2Cc2ccccc2)C(C)C)CC1 (stereo not drawn) | inactive: 98% |
| Cc1csc2nc(COC(=O)c3ccc(F)cc3)cc(=O)n12 | inactive: 72% |
| CCc1ccc2oc(C(=O)NCC(c3ccc(Cl)cc3)N3CCOCC3)c(C)c2c1 (stereo not drawn) | inactive: 72% |
| CC(=O)N1CCCc2cc(S(=O)(=O)N(CCN(C)C)Cc3ccccc3)ccc21 | inactive: 102% |
| CC1Cc2ccccc2N1C(=O)C1CCN(S(=O)(=O)Cc2ccccc2)CC1 (stereo not drawn) | inactive: 66% |
| Cc1ccc(-n2ncc3c(N4CCCCC4)ncnc32)cc1Cl | inactive: 72% |
| CCc1cccc(C)c1NC(=O)c1cc(S(=O)(=O)N(C)Cc2ccccc2)ccc1F | inactive: 123% |
